# Data published in PubChem BioAssay AID1671194 (National Center for Advancing Translational Sciences (NCATS), 2021).
# The campaign covered roughly 140,000 compounds. About 240 (0.17%) were called active. The inconclusive results got no clear call from the source; some entries with a clear call stand among them for comparison. Calls come from the whole dose curve; as a rule, active = well fitted inhibition curve with a large enough effect; inconclusive = small, poorly fitted or top-dose-only effect; inactive = no such curve, though single readings can be large or run the other way. Where the call is inconclusive, the potency comes from a doubtful curve fit.
# Experiment: Primary qHTS assay for inhibitors of alpha-synuclein gene (SNCA) expression; note: nearly all actives have a fitted effect of over 45% in size
# Conditions: HEK-293 SNCA-luciferase knock-in, luminescence, 24 h; series mostly up to 57.2 µM
# Potency is the fitted concentration of half-maximal effect; tags give direction and shape of the fitted curve.
row,Structure (SMILES),Potency
1,CC(C)Cn1c(=O)c(C(=O)NCc2cccs2)nc2cccnc21,inactive
2,COc1ccc(C(=O)N2CCCC(c3noc(COc4ccccc4F)n3)C2)cc1OC (stereo not drawn),"inconclusive: 3.16 µM [inhibitor, full curve]"
3,CS(=O)(=O)c1ccc(CN2CCC[C@H]2c2nc(-c3ccnc(N4CCOCC4)c3)no2)cc1,inactive
4,OC[C@@H]1CN(CC2CC2)C[C@H]1c1nc(-c2ccncc2)no1,inactive
5,O=Cc1cccc(N2CCN(C(=O)c3ccc4c(c3)OCO4)CC2=O)c1,"inconclusive: 50.1 µM [inhibitor, partial curve, poor fit]"
6,O=C(c1ccccc1F)N1CCn2c(nnc2-c2ccc(Cl)cc2)C1,"inconclusive: 10 µM [inhibitor, partial curve]"
7,Cc1cc(C)cc(-n2c(SCC(N)=O)nc3c([nH]c4ccccc43)c2=O)c1,"inconclusive: 14.1 µM [inhibitor, single point]"
8,CCCNc1cc(N2CCC(CCC(=O)N(C)CCc3ccncc3)CC2)ncn1,"inconclusive: 10 µM [inhibitor, partial curve, poor fit]"
9,O=C(Cn1c(=O)oc2cc(S(=O)(=O)N3CCCCC3)ccc21)NCc1ccc(Cl)cc1,"inconclusive: 39.8 µM [inhibitor, partial curve, poor fit]"
10,CN(Cc1ccc(-c2ccccc2)cc1)S(C)(=O)=O,inactive
11,CCCOc1ccccc1C(=O)N1CCc2onc(-c3ccccc3)c2C1,inactive
12,Cc1cccc(N2CCN(S(=O)(=O)c3ccc4c(c3)CC(=O)N4C)CC2)c1C,"inconclusive: 12.6 µM [inhibitor, partial curve, poor fit]"
13,CCCNC(=O)N1CCCCCCN(C)C(=O)CC1,"inconclusive: 35.5 µM [inhibitor, single point]"
14,COc1ccc(C(=O)Nc2noc3ccccc23)cc1,"inconclusive: 5.01 µM [inhibitor, full curve, poor fit]"
15,Cc1ccc(CNC(=O)c2ccc(NC(=O)c3cc4c(=O)[nH]c(C)cn4n3)cc2)cc1,inactive
16,COCc1nncn1C1CCN(S(=O)(=O)c2cccc(OC)c2)CC1,inactive
17,Cc1ccsc1C(=O)N1CCC(n2cc(-c3nc(-c4ccccc4)no3)nn2)CC1,inactive
18,COc1ccc(-c2ccc3ncc(Nc4cccnc4OC)n3n2)cn1,"inconclusive: 3.16 µM [inhibitor, partial curve, poor fit]"
19,CCn1cc(CN2C[C@@H](COc3ccccc3)[C@H](C(N)=O)C2)c(C)n1,inactive
20,O=C(NCCN1CCCCC1)C1CCc2ncc(-c3ccc(F)cc3)n2C1 (stereo not drawn),"inconclusive: 17.8 µM [inhibitor, single point]"
21,CCOc1ccc(NC(=O)CN2CCN(CC(=O)Nc3ccccc3OCC)CC2)cc1,"inconclusive: 39.8 µM [inhibitor, single point]"
22,CCCCN(c1ccccc1)S(=O)(=O)c1ccc2c(c1)CC(C)N2C(=O)C1CC1 (stereo not drawn),"inconclusive: 17.8 µM [inhibitor, single point]"

row,Structure (SMILES),Potency
1,COc1ccc(C(=O)N2CCOCCNC(=O)CC2)c(OC)c1,"inconclusive: 4.47 µM [inhibitor, full curve]"
2,COc1ccccc1-c1cc(C(=O)NCc2cccnc2)c2c(c1)N(C)CCO2,inactive
3,COc1ccccc1N1CCN(C(=O)C(N)c2c(C)n[nH]c2C)CC1(C)C (stereo not drawn),"inconclusive: 14.1 µM [inhibitor, partial curve]"
4,CCOC(=O)C1=C(CN2CCN(c3cc(C)ccc3C)CC2)NC(=O)NC1c1ccc(Cl)cc1 (stereo not drawn),"inconclusive: 14.1 µM [inhibitor, partial curve, poor fit]"
5,CC(C)CN1CCOC[C@H](Oc2ccc(C(F)(F)F)cc2)C1,"inconclusive: 3.98 µM [inhibitor, single point]"
6,CC(C)(C)NC(=O)NCc1nnc2n1C(C(=O)NCc1ccccc1Cl)CC2 (stereo not drawn),inactive
7,Cc1ccc(C2Cn3nnc(C(=O)N4CCN(C(=O)c5ccc(Cl)cc5)CC4)c3CO2)cc1 (stereo not drawn),"inconclusive: 11.2 µM [inhibitor, partial curve, poor fit]"
8,Cc1nc2sc(C(N)=O)c(N)c2c(-c2ccc(Br)cc2)c1C(=O)Nc1ccc(Cl)cc1,"inconclusive: 20 µM [inhibitor, partial curve, poor fit]"
9,Cc1ccc(C(=O)Nc2onc3c2CCCC3)cc1,"inconclusive: 6.31 µM [inhibitor, full curve, poor fit]"
10,Clc1ccccc1Nc1cnc2ccc(N3CCOCC3)nn12,inactive
11,CN(C)C[C@@H]1CN(c2ncccn2)C[C@H]1NC(=O)c1ccc(Cl)cc1,"inconclusive: 8.91 µM [inhibitor, full curve]"
12,Cc1ccc(-c2cnc([C@@H]3COCCN3C3CCOCC3)[nH]2)cc1,"inconclusive: 56.2 µM [inhibitor, single point]"
13,C=CCNC(=O)c1cn2c(n1)CN(C(=O)c1ccccc1)CC2,"inconclusive: 11.2 µM [inhibitor, single point]"
14,CC(C)Oc1ccc(CNC(=O)C2Cn3cccc3C(=O)N2C)cc1 (stereo not drawn),"inconclusive: 10 µM [inhibitor, partial curve, poor fit]"
15,CC(=O)Nc1nonc1-c1nnc(SCC(=O)Nc2ccc(C)c(Cl)c2)n1-c1ccccc1,inactive
16,O=C(c1ccc(F)c(F)c1)N1CCN(c2cc(-c3ccc(Cl)cc3)[nH]n2)CC1,inactive
17,Cc1nn2c(c1-c1ccccc1OCc1ccccc1)N(C(=O)C(C)C)CCC2,"inconclusive: 56.2 µM [inhibitor, single point]"
18,CCOC(=O)c1cnc2c(ccc3ccccc32)c1Nc1ccc(Cl)cc1,inactive
19,COc1cccc(Nc2ncc3c(n2)C(C)(C(=O)NCc2ccc4c(c2)OCO4)CC3)c1 (stereo not drawn),"inconclusive: 56.2 µM [inhibitor, single point]"
20,COc1ccccc1CN1Cc2cc(NC(=O)Cc3ccc(F)cc3)ccc2OC(C)C1=O (stereo not drawn),"inconclusive: 39.8 µM [inhibitor, single point]"
21,CCOc1ccc(CNC(=O)C2CCCN(S(=O)(=O)N(C)c3ccc(F)cc3)C2)cc1OC (stereo not drawn),"inconclusive: 0.178 µM [inhibitor, full curve, poor fit]"
